Reference: PubChem BioAssay (NCI)
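Following 48 hours of exposure in 96-well plates, responses at five concentrations were used to interpolate endpoints linearly. GI50: concentration for 50% inhibition of growth. TGI marks complete inhibition of growth.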

System: NCI-H322M lung
Experiment: NCI-60 cell line screen, 48 h

SMILES	TGI [µM]	GI50 [µM]
COc1cc(NC=C2C(=O)OC(C)(C)OC2=O)c(OC)c(C)c1OC	> 100	
Cn1c(=S)c2[nH]c(SCCN3C(=O)c4ccccc4C3=O)nc2n(C)c1=O	> 100	
CCOC(=O)/C(=C/c1ccc(N(CCC#N)CCC#N)cc1C)NC(=O)/C=C/c1ccccc1	> 100	
CCOC(=O)c1ccc2c(c1)[n+](=O)c(C(C)=O)c(C(F)(F)F)n2[O-]	9.84	2.67
O=S(=O)(O)c1ccc2c(N=Nc3ccc(Cl)cc3)c(O)ccc2c1	> 100	
O=c1[nH]c(=O)n(C2CC(O)C(CO)O2)cc1C#Cc1ccc(F)cc1 (stereo not given)	> 100	
COc1cc(C2c3cc4c(cc3[C@@H](Oc3ccc(F)cc3)C3COC(=O)[C@H]23)OCO4)cc(OC)c1O (stereo not given in full)	> 100	
Cc1cc(Cl)ccc1Nc1nc(C(F)(F)F)ccc1C(=O)N/N=C/c1ccccc1Cl	> 21.8	0.532
Cc1ccc(-c2nc([P+](c3ccccc3)(c3ccccc3)c3ccccc3)c(Nc3ccccc3)o2)cc1	2.11	0.882
O=C(Nc1cccc2ccccc12)c1ccccc1	> 100	
C=CCN(c1cc(OC)c2[nH]c(C(=O)OCC)c(C)c2c1[N+](=O)[O-])S(C)(=O)=O	84.9	
O=C1CCCCC/C1=C\c1ccccc1	> 100	
COc1cc2c(=O)n(CCN(C)C)c3c4cc5c(cc4ccc3c2cc1OC)OCO5	2.99	0.373
Cc1ccc(NC(=O)/C(=N/N(C)C)C(C2OC(=O)c3ccccc32)[N+](=O)[O-])cc1 (stereo not given)	> 100	
N#Cc1c(N)nc(NCc2ccccc2)c(C#N)c1-c1ccc(Cl)cc1Cl	> 100	> 62.8
COC(=O)/C=C\C(C#N)(C#N)N=Cc1sccc1C	31.1	
O=C(Nc1sccc1S(=O)(=O)c1ccccc1)c1ccccc1	> 100	
O=S(=O)(/N=C(\NO)Nc1ccc(Cl)cc1)c1ccccc1	50.8	
CC12CCC3c4cc(Br)c(O)c(Br)c4CCC3C1CCC2O (stereo not given)	34.2	
C#CC1(O)CCC2[C@@H]3CCc4cc(Oc5nc(F)nc(-c6c7ccccc7cn6C)n5)ccc4C3CC[C@@]21C (stereo not given in full)	> 100	
Cc1cn(-c2ccc(S(C)(=O)=O)cc2)c(-c2ccc(Cl)cc2)n1	> 100	> 100
CC1=C[C@H]2C[C@H](C)[C@H]3CC[C@H](C)[C@]4(C1)C(=O)C(O)=C(C)C(=O)[C@@]324	88.1	26.7
O=C(Nc1nnc(-c2c(Cl)c(Cl)c(Cl)c(Cl)c2-c2nc3cc(C(=O)c4ccccc4)ccc3[nH]2)o1)c1ccc(Cl)cc1	> 100	
CC[P+]1(c2ccccc2)[C@@H](C)CC[C@@H]1C	> 100	
Oc1[nH]c2ccccc2c1N=Nc1c(F)c(F)c(F)c(F)c1F	> 100	
NC1Cc2ccccc2OC1=O (stereo not given)	> 100	
O=C(Nc1ccccc1O)c1ccc(NS(=O)(=O)c2cccc3cccnc23)cc1	> 23.6	2.35
